According to patent publication US20140011691A1 (ARIZONA BOARD OF REGENTS A BODY CORPORATE OF THE STATE OF …, published 2014):

Target: a-syn (all forms) in human CSF (human, UniProt P37840)
Assay: reactivity of CSF with nanobody; ND CSF

B1: D10 nanobody (scFv)
scFv: MAEVQLVESGGGVVQPGRSLRLSCAASGFTFSSYGMHWVRQAPGKGLEWVAVISYDGSNKYYADSVKGRFTISRDNSKNTLYLQVNSLRAEDTAVYYCARINAKWGQGTLVTVSSGGGGSGGGGSGGSAL[in this place about 100 residues]TFGQGTKVEIKRAAAHHHHHHGAAEQKLISEEDLNGAA
notes: Immobilized on the biosensor through the DSP linker
binding result: binds
